Reference: publication PMC10442006
Results are given in words; binding and its absence hold for the method and conditions named. Some results given as binding are weak or reduced against the parent protein; the word gives no strength. Sequences can lack the tags named with a protein.

Amino acid sequences for entries named in this document (tags omitted).
UniProt A4GSN8: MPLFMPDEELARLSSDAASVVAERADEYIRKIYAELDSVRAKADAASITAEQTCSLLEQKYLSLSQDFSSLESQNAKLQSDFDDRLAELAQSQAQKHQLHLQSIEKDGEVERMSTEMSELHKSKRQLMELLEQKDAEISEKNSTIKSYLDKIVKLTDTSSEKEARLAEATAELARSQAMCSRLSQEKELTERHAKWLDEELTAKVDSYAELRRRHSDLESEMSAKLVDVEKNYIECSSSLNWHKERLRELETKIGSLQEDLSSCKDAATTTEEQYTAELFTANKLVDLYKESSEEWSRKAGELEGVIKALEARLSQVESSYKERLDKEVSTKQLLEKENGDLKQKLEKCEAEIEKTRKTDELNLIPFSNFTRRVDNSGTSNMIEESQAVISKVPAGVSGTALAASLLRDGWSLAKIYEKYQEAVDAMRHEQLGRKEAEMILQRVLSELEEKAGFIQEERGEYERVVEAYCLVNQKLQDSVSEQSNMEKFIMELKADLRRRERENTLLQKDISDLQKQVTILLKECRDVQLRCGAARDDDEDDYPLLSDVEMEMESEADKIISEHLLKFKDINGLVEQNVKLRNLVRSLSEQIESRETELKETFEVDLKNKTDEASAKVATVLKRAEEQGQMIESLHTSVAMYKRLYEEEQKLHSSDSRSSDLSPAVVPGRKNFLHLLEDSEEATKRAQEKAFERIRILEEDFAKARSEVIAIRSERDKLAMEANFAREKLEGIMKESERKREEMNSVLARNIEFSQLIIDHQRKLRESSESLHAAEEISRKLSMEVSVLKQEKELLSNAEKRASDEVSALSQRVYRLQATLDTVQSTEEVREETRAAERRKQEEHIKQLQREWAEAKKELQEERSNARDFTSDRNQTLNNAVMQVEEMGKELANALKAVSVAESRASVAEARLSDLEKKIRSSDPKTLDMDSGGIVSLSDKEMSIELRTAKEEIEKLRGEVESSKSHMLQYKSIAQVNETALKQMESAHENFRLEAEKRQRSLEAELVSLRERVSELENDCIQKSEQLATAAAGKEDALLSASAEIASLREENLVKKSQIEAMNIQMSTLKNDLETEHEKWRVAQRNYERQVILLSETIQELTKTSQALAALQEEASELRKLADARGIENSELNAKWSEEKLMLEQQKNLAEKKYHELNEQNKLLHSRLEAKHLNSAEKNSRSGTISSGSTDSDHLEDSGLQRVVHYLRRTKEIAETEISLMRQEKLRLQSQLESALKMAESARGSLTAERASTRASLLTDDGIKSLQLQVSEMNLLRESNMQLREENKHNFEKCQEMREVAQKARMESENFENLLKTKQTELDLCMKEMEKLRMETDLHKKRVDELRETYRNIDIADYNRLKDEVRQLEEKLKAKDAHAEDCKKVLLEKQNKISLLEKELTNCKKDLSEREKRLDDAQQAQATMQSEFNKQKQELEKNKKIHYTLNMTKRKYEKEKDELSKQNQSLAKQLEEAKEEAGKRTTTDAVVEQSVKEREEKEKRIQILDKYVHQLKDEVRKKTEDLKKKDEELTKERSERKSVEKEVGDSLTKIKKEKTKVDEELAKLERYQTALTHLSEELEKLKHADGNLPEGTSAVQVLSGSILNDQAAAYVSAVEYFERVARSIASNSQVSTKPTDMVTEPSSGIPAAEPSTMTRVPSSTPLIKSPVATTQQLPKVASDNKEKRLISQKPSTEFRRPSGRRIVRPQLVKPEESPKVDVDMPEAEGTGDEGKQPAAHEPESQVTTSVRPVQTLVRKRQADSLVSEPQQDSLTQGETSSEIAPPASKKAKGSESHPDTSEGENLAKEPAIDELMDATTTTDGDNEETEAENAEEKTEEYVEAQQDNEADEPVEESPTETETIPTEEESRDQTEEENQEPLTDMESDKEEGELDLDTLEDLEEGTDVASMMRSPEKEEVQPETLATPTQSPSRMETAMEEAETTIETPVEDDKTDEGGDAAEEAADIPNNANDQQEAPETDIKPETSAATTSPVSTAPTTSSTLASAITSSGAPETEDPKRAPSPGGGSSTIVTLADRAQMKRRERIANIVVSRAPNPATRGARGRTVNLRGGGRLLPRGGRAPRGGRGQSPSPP

Key:
Assay in all cases: two-hybrid; NUA or ESD4 on the GAL4 AD (pGADT7), SnRK2s on the GAL4 BD (pGBKT7), co-transformed into S. cerevisiae AH109; growth on -Leu/-Trp/-His (with 3-AT) or -Leu/-Trp/-His/-Ade
[1] = target: T1, SnRK2.5 fused to the GAL4 BD (Arabidopsis thaliana) (UniProt Q9FFP9)
T1 sequence: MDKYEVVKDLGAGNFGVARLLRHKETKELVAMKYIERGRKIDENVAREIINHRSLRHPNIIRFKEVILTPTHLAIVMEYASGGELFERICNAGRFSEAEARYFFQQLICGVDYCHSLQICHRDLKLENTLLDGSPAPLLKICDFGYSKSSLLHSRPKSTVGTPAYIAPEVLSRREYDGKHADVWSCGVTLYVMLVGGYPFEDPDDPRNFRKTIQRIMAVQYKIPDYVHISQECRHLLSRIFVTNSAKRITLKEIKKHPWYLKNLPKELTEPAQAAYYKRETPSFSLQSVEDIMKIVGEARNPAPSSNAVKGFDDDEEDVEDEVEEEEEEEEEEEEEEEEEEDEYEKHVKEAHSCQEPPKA

[2] = target: T2, SnRK2.9 fused to the GAL4 BD (Arabidopsis thaliana) (UniProt O64812)
T2 sequence: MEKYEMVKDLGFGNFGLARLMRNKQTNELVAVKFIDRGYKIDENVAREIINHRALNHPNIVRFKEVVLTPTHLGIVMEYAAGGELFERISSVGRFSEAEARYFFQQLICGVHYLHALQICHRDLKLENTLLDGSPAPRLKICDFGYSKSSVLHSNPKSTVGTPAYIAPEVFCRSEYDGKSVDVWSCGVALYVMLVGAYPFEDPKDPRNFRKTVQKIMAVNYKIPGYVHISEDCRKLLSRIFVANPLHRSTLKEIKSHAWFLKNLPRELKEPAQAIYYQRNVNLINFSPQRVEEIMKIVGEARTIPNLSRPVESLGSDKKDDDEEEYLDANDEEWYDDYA

[3] = target: T3, SnRK2.3 fused to the GAL4 BD (Arabidopsis thaliana) (UniProt Q39193)
T3 sequence: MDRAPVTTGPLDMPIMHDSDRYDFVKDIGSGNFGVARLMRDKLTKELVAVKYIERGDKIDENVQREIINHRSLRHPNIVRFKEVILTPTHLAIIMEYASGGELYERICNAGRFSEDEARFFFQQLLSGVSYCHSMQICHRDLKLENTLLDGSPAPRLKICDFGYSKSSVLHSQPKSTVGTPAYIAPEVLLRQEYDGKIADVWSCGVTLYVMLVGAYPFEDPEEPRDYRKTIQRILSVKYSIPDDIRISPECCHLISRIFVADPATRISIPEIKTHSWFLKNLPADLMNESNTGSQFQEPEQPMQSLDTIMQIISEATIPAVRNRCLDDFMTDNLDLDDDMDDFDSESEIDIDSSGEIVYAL

[4] = target: T4, SnRK2.8 fused to the GAL4 BD (Arabidopsis thaliana) (UniProt Q9M9E9)
T4 sequence: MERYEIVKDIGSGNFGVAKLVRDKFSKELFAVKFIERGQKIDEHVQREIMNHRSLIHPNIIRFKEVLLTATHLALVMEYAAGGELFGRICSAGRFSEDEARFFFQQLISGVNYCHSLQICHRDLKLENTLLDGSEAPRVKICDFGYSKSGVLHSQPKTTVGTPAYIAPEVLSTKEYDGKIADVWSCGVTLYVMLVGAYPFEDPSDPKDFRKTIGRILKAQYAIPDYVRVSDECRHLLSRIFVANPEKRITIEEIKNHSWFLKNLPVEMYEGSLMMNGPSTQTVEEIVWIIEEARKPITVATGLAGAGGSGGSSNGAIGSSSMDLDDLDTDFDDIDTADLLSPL

[5] = target: T5, SnRK2.2 fused to the GAL4 BD (Arabidopsis thaliana) (UniProt Q39192)
T5 sequence: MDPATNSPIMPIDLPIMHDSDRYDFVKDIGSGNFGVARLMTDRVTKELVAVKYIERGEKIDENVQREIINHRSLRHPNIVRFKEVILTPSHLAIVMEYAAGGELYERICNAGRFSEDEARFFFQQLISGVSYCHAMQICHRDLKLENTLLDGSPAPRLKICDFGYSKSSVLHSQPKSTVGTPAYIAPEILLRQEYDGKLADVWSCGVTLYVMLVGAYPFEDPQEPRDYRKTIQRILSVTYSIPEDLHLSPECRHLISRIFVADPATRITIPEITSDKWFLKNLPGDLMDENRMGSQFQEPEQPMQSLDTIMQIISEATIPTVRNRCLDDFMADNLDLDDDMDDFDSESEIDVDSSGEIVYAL

**Q.** How did the binding [1] turn out when “NUCLEAR PORE ANCHOR (NUA) fused to the GAL4 AD (from UniProt A4GSN8 1-2093)” was run?
**A.** no binding

**Q.** And the binding [2]?
**A.** no binding

**Q.** What about the binding [3] of the same substance?
**A.** binds

**Q.** What about the binding [4] of the same substance?
**A.** no binding

**Q.** What about the binding [5] of the same substance?
**A.** binds
